Measurements as given in the supplement of paper PMC4967469.
IC50 is the fitted dose that halves viability relative to control wells, and lower means more sensitive; a fit beyond the top or the lowest dose is shown as a bound at that dose. AUC, from the same fit, is the share of area under the viability curve across the 256-fold dose range; values near 1 show little effect. For some of these results: Where the top dose is marked as inferred, it comes from the curve model; the source does not state it.

Key:
Assay in all cases: Viability of human cancer cell lines after 72 h of drug (GDSC screen)
BMX-IN-1 (QL-XII-61) = compound: C=CC(=O)Nc1cc(-n2c(=O)ccc3cnc4ccc(-c5ccc(NS(C)(=O)=O)cc5)cc4c32)ccc1C [BMX-IN-1 (QL-XII-61)]; conditions: top dose 10 µM; top dose inferred
Experimental: (§1)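 Human cancer cell lines in 384-well plates, medium with 10% serum, drug for 72 h over a 256-fold dose range (nine 2-fold or five 4-fold steps up to the top dose). Adherent lines were fixed and stained with the nucleic acid dye Syto60, suspension lines read with resazurin; signal relative to control wells, capped at 0 and 100%. One two-parameter sigmoid per drug and line, fitted in a mixed model over all curves with the slope shared within a line.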

17-AAG = compound: C=CCNC1=C2C[C@@H](C)C[C@H](OC)[C@H](O)[C@@H](C)/C=C(\C)[C@H](OC(N)=O)[C@@H](OC)/C=C\C=C(/C)C(=O)NC(=CC1=O)C2=O [17-AAG]; conditions: top dose 1 µM
Experimental: as §1

BIX02189 = compound: CN(C)Cc1cccc(N=C(c2ccccc2)c2c(O)[nH]c3cc(C(=O)N(C)C)ccc23)c1 [BIX02189]; conditions: top dose 20 µM; top dose inferred
Experimental: as §1

Dimethyloxalylglycine = compound: COC(=O)CNC(=O)C(=O)OC [Dimethyloxalylglycine]; conditions: top dose 4000 µM; top dose inferred
Experimental: as §1

Doxorubicin = compound: COc1cccc2c1C(=O)c1c(O)c3c(c(O)c1C2=O)C[C@@](O)(C(=O)CO)C[C@@H]3O[C@H]1C[C@H](N)[C@H](O)[C@H](C)O1 [Doxorubicin]; conditions: top dose 1.024 µM
Experimental: as §1

OSI-027 = compound: COc1cccc2cc(-c3nc([C@H]4CC[C@H](C(=O)O)CC4)n4ncnc(N)c34)[nH]c12 [OSI-027]; conditions: top dose 20 µM
Experimental: as §1

Vismodegib = compound: CS(=O)(=O)c1ccc(C(=O)Nc2ccc(Cl)c(-c3ccccn3)c2)c(Cl)c1 [Vismodegib]; conditions: top dose 10 µM; top dose inferred
Experimental: as §1

VX-11e = compound: Cc1cnc(Nc2ccc(F)cc2Cl)nc1-c1c[nH]c(C(=O)N[C@H](CO)c2cccc(Cl)c2)c1 [VX-11e]; conditions: top dose 5.12 µM; top dose inferred
Experimental: as §1

TG101348 = compound: Cc1cnc(Nc2ccc(OCCN3CCCC3)cc2)nc1Nc1cccc(S(=O)(=O)NC(C)(C)C)c1 [TG101348]; conditions: top dose 10.24 µM
Experimental: as §1

UNC1215 = compound: O=C(c1ccc(C(=O)N2CCC(N3CCCC3)CC2)c(Nc2ccccc2)c1)N1CCC(N2CCCC2)CC1 [UNC1215]; conditions: top dose 1 µM; top dose inferred
Experimental: as §1

CCT018159 = compound: CCc1cc(-c2n[nH]c(C)c2-c2ccc3c(c2)OCCO3)c(O)cc1O [CCT018159]; conditions: top dose 10 µM; top dose inferred
Experimental: as §1

## SK-PN-DW (Ewing sarcoma, adherent)
BMX-IN-1 (QL-XII-61)
  AUC: 0.983
  IC50: > 10 µM
17-AAG
  AUC: 0.966
  IC50: > 1 µM
BIX02189
  AUC: 0.947
  IC50: > 20 µM
Dimethyloxalylglycine
  AUC: 0.508
  IC50: 263 µM
Doxorubicin
  AUC: 0.379
  IC50: 0.0293 µM
OSI-027
  AUC: 0.142
  IC50: 0.0895 µM
Vismodegib
  AUC: 0.869
  IC50: 9.86 µM
VX-11e
  AUC: 0.972
  IC50: > 5.12 µM
TG101348
  AUC: 0.818
  IC50: 6.03 µM
UNC1215
  AUC: 0.974
  IC50: > 1 µM

## NCI-H1355 (lung adenocarcinoma, adherent)
BMX-IN-1 (QL-XII-61)
  AUC: 0.967
  IC50: > 10 µM
17-AAG
  AUC: 0.617
  IC50: 0.151 µM
CCT018159
  AUC: 0.887
  IC50: > 10 µM
BIX02189
  AUC: 0.978
  IC50: > 20 µM
Dimethyloxalylglycine
  AUC: 0.546
  IC50: 353 µM
Doxorubicin
  AUC: 0.547
  IC50: 0.0909 µM
OSI-027
  AUC: 0.922
  IC50: > 20 µM
VX-11e
  AUC: 0.968
  IC50: > 5.12 µM
TG101348
  AUC: 0.949
  IC50: > 10.2 µM
UNC1215
  AUC: 0.971
  IC50: > 1 µM

## ALL-SIL (T-cell leukaemia, suspension)
BMX-IN-1 (QL-XII-61)
  AUC: 0.892
  IC50: 8.89 µM
17-AAG
  AUC: 0.988
  IC50: > 1 µM
BIX02189
  AUC: 0.575
  IC50: 1.94 µM
Dimethyloxalylglycine
  AUC: 0.255
  IC50: 56.3 µM
Doxorubicin
  AUC: 0.457
  IC50: 0.0497 µM
OSI-027
  AUC: 0.3
  IC50: 0.376 µM
Vismodegib
  AUC: 0.984
  IC50: > 10 µM
VX-11e
  AUC: 0.643
  IC50: 0.749 µM
TG101348
  AUC: 0.446
  IC50: 0.465 µM
UNC1215
  AUC: 0.987
  IC50: > 1 µM

## EN (endometrium, adherent)
BMX-IN-1 (QL-XII-61)
  AUC: 0.982
  IC50: > 10 µM
17-AAG
  AUC: 0.879
  IC50: > 1 µM
BIX02189
  AUC: 0.956
  IC50: > 20 µM
Dimethyloxalylglycine
  AUC: 0.715
  IC50: 1210 µM
Doxorubicin
  AUC: 0.623
  IC50: 0.153 µM
OSI-027
  AUC: 0.698
  IC50: 5.29 µM
Vismodegib
  AUC: 0.984
  IC50: > 10 µM
VX-11e
  AUC: 0.962
  IC50: > 5.12 µM
TG101348
  AUC: 0.881
  IC50: > 10.2 µM
UNC1215
  AUC: 0.98
  IC50: > 1 µM

## SK-CO-1 (large intestine, adherent)
BMX-IN-1 (QL-XII-61)
  AUC: 0.953
  IC50: > 10 µM
17-AAG
  AUC: 0.51
  IC50: 0.0665 µM
CCT018159
  AUC: 0.954
  IC50: > 10 µM
BIX02189
  AUC: 0.956
  IC50: > 20 µM
Dimethyloxalylglycine
  AUC: 0.855
  IC50: 2890 µM
Doxorubicin
  AUC: 0.638
  IC50: 0.15 µM
OSI-027
  AUC: 0.989
  IC50: > 20 µM
VX-11e
  AUC: 0.529
  IC50: 0.382 µM
TG101348
  AUC: 0.925
  IC50: > 10.2 µM
UNC1215
  AUC: 0.982
  IC50: > 1 µM

## MDA-MB-330 (breast, adherent)
BMX-IN-1 (QL-XII-61)
  AUC: 0.95
  IC50: > 10 µM
17-AAG
  AUC: 0.462
  IC50: 0.0484 µM
BIX02189
  AUC: 0.979
  IC50: > 20 µM
Dimethyloxalylglycine
  AUC: 0.781
  IC50: 1910 µM
Doxorubicin
  AUC: 0.752
  IC50: 0.383 µM
OSI-027
  AUC: 0.732
  IC50: 6.39 µM
Vismodegib
  AUC: 0.978
  IC50: > 10 µM
VX-11e
  AUC: 0.986
  IC50: > 5.12 µM
TG101348
  AUC: 0.959
  IC50: > 10.2 µM
UNC1215
  AUC: 0.984
  IC50: > 1 µM

## TC-71 (Ewing sarcoma, adherent)
BMX-IN-1 (QL-XII-61)
  AUC: 0.652
  IC50: 1.52 µM
17-AAG
  AUC: 0.751
  IC50: 0.282 µM
CCT018159
  AUC: 0.899
  IC50: 8.9 µM
BIX02189
  AUC: 0.931
  IC50: > 20 µM
Dimethyloxalylglycine
  AUC: 0.891
  IC50: 3290 µM
Doxorubicin
  AUC: 0.903
  IC50: 0.948 µM
OSI-027
  AUC: 0.239
  IC50: 0.261 µM
VX-11e
  AUC: 0.927
  IC50: > 5.12 µM
TG101348
  AUC: 0.776
  IC50: 3.39 µM
UNC1215
  AUC: 0.991
  IC50: > 1 µM

## NB7 (neuroblastoma, adherent)
BMX-IN-1 (QL-XII-61)
  AUC: 0.925
  IC50: > 10 µM
17-AAG
  AUC: 0.892
  IC50: > 1 µM
CCT018159
  AUC: 0.926
  IC50: > 10 µM
BIX02189
  AUC: 0.971
  IC50: > 20 µM
Dimethyloxalylglycine
  AUC: 0.233
  IC50: 40.3 µM
Doxorubicin
  AUC: 0.67
  IC50: 0.195 µM
OSI-027
  AUC: 0.043
  IC50: < 0.0781 µM
VX-11e
  AUC: 0.977
  IC50: > 5.12 µM
TG101348
  AUC: 0.8
  IC50: 5.22 µM
UNC1215
  AUC: 0.974
  IC50: > 1 µM

## SNU-387 (liver, adherent)
BMX-IN-1 (QL-XII-61)
  AUC: 0.959
  IC50: > 10 µM
17-AAG
  AUC: 0.914
  IC50: > 1 µM
BIX02189
  AUC: 0.963
  IC50: > 20 µM
Dimethyloxalylglycine
  AUC: 0.559
  IC50: 370 µM
Doxorubicin
  AUC: 0.689
OSI-027
  AUC: 0.448
  IC50: 0.885 µM
Vismodegib
  AUC: 0.984
  IC50: > 10 µM
VX-11e
  AUC: 0.742
  IC50: 1.76 µM
TG101348
  AUC: 0.528
  IC50: 0.772 µM
UNC1215
  AUC: 0.98
  IC50: > 1 µM

## RS4-11 (leukaemia, suspension)
BMX-IN-1 (QL-XII-61)
  AUC: 0.846
  IC50: 6.38 µM
17-AAG
  AUC: 0.941
  IC50: > 1 µM
CCT018159
  AUC: 0.883
  IC50: 9.12 µM
BIX02189
  AUC: 0.866
  IC50: 15.3 µM
Dimethyloxalylglycine
  AUC: 0.195
  IC50: 34.5 µM
Doxorubicin
  AUC: 0.321
  IC50: 0.0213 µM
OSI-027
  AUC: 0.087
  IC50: < 0.0781 µM
VX-11e
  AUC: 0.924
  IC50: > 5.12 µM
TG101348
  AUC: 0.476
  IC50: 0.555 µM
UNC1215
  AUC: 0.987
  IC50: > 1 µM

## SU-DHL-8 (B-cell lymphoma, suspension)
BMX-IN-1 (QL-XII-61)
  AUC: 0.917
  IC50: > 10 µM
17-AAG
  AUC: 0.98
  IC50: > 1 µM
CCT018159
  AUC: 0.95
  IC50: > 10 µM
BIX02189
  AUC: 0.9
  IC50: > 20 µM
Dimethyloxalylglycine
  AUC: 0.401
  IC50: 137 µM
Doxorubicin
  AUC: 0.35
  IC50: 0.0254 µM
OSI-027
  AUC: 0.112
  IC50: 0.0785 µM
VX-11e
  AUC: 0.728
  IC50: 1.35 µM
TG101348
  AUC: 0.639
  IC50: 1.5 µM
UNC1215
  AUC: 0.987
  IC50: > 1 µM

## SK-LU-1 (lung adenocarcinoma, adherent)
BMX-IN-1 (QL-XII-61)
  AUC: 0.936
  IC50: > 10 µM
17-AAG
  AUC: 0.46
  IC50: 0.0472 µM
CCT018159
  AUC: 0.879
  IC50: > 10 µM
BIX02189
  AUC: 0.891
  IC50: > 20 µM
Dimethyloxalylglycine
  AUC: 0.345
  IC50: 82.3 µM
Doxorubicin
  AUC: 0.323
  IC50: 0.0178 µM
OSI-027
  AUC: 0.57
  IC50: 2.05 µM
VX-11e
  AUC: 0.956
  IC50: > 5.12 µM
TG101348
  AUC: 0.811
  IC50: 7.33 µM
UNC1215
  AUC: 0.978
  IC50: > 1 µM

## H2591 (mesothelioma, adherent)
BMX-IN-1 (QL-XII-61)
  AUC: 0.971
  IC50: > 10 µM
17-AAG
  AUC: 0.866
  IC50: > 1 µM
CCT018159
  AUC: 0.927
  IC50: > 10 µM
BIX02189
  AUC: 0.884
  IC50: > 20 µM
Dimethyloxalylglycine
  AUC: 0.195
  IC50: 22.5 µM
Doxorubicin
  AUC: 0.705
  IC50: 0.291 µM
OSI-027
  AUC: 0.47
  IC50: 1.01 µM
VX-11e
  AUC: 0.974
  IC50: > 5.12 µM
TG101348
  AUC: 0.95
  IC50: > 10.2 µM
UNC1215
  AUC: 0.972
  IC50: > 1 µM
